Measurements as given in PubChem BioAssay AID624418 (National Center for Advancing Translational Sciences (NCATS), 2012).
The campaign covered roughly 410,000 compounds. About 530 (0.13%) were called active. This list was built around the results that the source calls inconclusive (neither active nor inactive); the mix of calls is not that of the screen. Calls come from the whole dose curve; as a rule, active = well fitted inhibition curve with a large enough effect; inconclusive = small, poorly fitted or top-dose-only effect, or another doubt; inactive = no such curve, though single readings can be large or run the other way. Where the call is inconclusive, the potency comes from a doubtful curve fit.

test: qHTS of GLP-1 Receptor Inverse Agonists: Cytotox Screen; conditions: HEK293 cAMP-luciferase reporter cells, luminescence, 24 h; activity change, negative = inhibition: at 38.3 µM (top of the series)
Procedure, shortened: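 Cells in DMEM/10% Nu serum/1% pen-strep, 1536-well format. Pre-incubated 12 h, dosed with 23 nL compound, incubated a further 24 h. Luciferase detection, 12 min at room temp, luminescence.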
% is set by controls: 0 for no effect and ±100 for the full control effect; potency is the fitted concentration of half-maximal effect.

Row | Compound | activity change, negative = inhibition | Potency
1 | O=C(O)c1ccc(NC(=O)c2ccccc2NC(=O)c2ccccc2Cl)cc1 | inactive: -5.2% | 
2 | COc1ccc(OCC(=O)Nc2ccc(S(=O)(=O)N(C)c3ccccc3)cc2)cc1 | inactive: 0.755% | 
3 | C/C=C1\COC(C(=O)NCc2ccccc2)(C(F)(F)F)C=C1C=C1CCCCC1 (configuration not stated) | inactive: 1.49% | 
4 | C(=N\Nc1nc(-c2cccnc2)nc2ccccc12)/c1ccccc1 | inactive: 0% | 
5 | O=C(CCN1C(=O)C2C3C=CC(C3)C2C1=O)N1CCN(c2ccccc2F)CC1 (configuration not stated) | inactive: -5.41% | 
6 | Clc1cccc(-n2ncc3c(NCCC4=CCCCC4)ncnc32)c1 | inactive: -1.75% | 
7 | COc1ccc(-c2c(-c3cc(OC)cc(OC)c3)sc3ccc(OC)cc23)cc1 | inactive: 12.2% | 
8 | Cc1ccc(Nc2nc(N)nc(CSC(=S)N3CCOCC3)n2)cc1 | inactive: 2.02% | 
9 | O=C(Cc1ccc2c(c1)OCO2)NN=Cc1ccc([N+](=O)[O-])o1 |  | inconclusive: 28.2 µM [inhibitor, single point]
10 | CCCc1c(C(=O)N/N=C/c2ccco2)nnn1-c1nonc1N |  | inconclusive: 28.2 µM [inhibitor, single point]
11 | Cc1ccc(CNC(=O)c2oc3ccc(S(=O)(=O)N4CCCC(C)C4)cc3c2C)cc1 (configuration not stated) | inactive: -3.92% | 
12 | Cc1[nH]c2ccccc2c1/C=N/n1cnnc1 | inactive: -8.36% | 
13 | Cc1ccc(S(=O)(=O)N2CCCCC2CCNC(=O)C(=O)NCc2ccccc2)cc1 (configuration not stated) |  | inconclusive: 2 µM [inhibitor, partial curve, poor fit]
14 | COc1ccc(Nc2nc(N3CCCC3)c3ccccc3n2)cc1 |  | inconclusive: 11.2 µM [inhibitor, single point]
15 | Cc1cc(NCC2CCCCC2)nc2ccccc12 |  | inconclusive: 12.6 µM [inhibitor, single point]
16 | Cc1ccc(NC(=O)CCCc2nnc3n(C)c(=O)c4sccc4n23)cc1C | inactive: -10.4% | 
17 | COCCCNC(=O)Cc1c(C)c2c(cc(C)c3c(C(C)(C)C)coc32)oc1=O |  | inconclusive: 1.41 µM [inhibitor, partial curve, poor fit]
18 | Cc1nc2ccc(NC(=O)c3cc([N+](=O)[O-])cc([N+](=O)[O-])c3Cl)cc2s1 |  | inconclusive: 10 µM [inhibitor, partial curve, poor fit]
19 | COC(=O)c1ccc(NCc2cc(O)ccc2O)cc1 |  | inconclusive: 25.1 µM [inhibitor, single point]
20 | O=C(CN1C(=O)C2CCCCN2c2ccc(C(=O)N3CCCC3)cc21)NCc1ccc(F)cc1 (configuration not stated) | inactive: 0.68% | 
21 | NC(c1csc(NC(=O)Nc2ccccc2Cl)n1)C1CCCCC1 (configuration not stated) | inactive: -6.38% | 
22 | COc1ccc(NC(=S)N2CCN(S(=O)(=O)c3ccc(F)cc3)CC2)cc1 | inactive: -5.69% | 
23 | COc1cccc(C(=O)Nc2sc3c(c2C(=O)O)CCCC3)c1 | inconclusive: -30.7% [inhibitor] | 
24 | Cc1cc(C(=O)NNc2ccc(F)cc2F)no1 |  | inconclusive: 22.4 µM [inhibitor, single point]

Row | Compound | activity change, negative = inhibition | Potency
25 | CCN(CC)c1ccc(NC(=O)CN2CCN(S(=O)(=O)c3ccc(C(C)C)cc3)CC2)cc1 | inactive: 8.02% | 
26 | C=C1C(=O)OC2C=C(CO)C3OC3C3OC3(C)CC(OC(=O)/C(=C/C)COC(C)=O)C12 (configuration not stated) |  | inconclusive: 5.01 µM [inhibitor, full curve, poor fit]
27 | O=C(CNC(=O)c1ccc2c(c1)OCO2)N/N=C(Br)/C=C/c1ccccc1 |  | inconclusive: 5.62 µM [inhibitor, full curve, poor fit]
28 | N#C/C(=N\Nc1ccccc1Cl)C(=O)c1ccccc1 |  | inconclusive: 28.2 µM [inhibitor, single point]
29 | CC1CC1C(=O)OCC(=O)Nc1cc(S(=O)(=O)N2CCCCC2)ccc1Cl (configuration not stated) |  | inconclusive: 31.6 µM [inhibitor, single point]
30 | COC(=O)c1sc(N)c(C(=O)OC)c1Cn1ncc(Cl)c(Cl)c1=O |  | inconclusive: 11.2 µM [inhibitor, single point]
31 | c1ccc(Nc2cc(-c3ccccc3)nc3ncnn23)cc1 | inactive: -8.9% | 
32 | Cn1c(Sc2ccc(Cl)cc2)c(C=O)c2ccccc21 |  | inconclusive: 22.4 µM [inhibitor, single point]
33 | CC(C)Cn1c(SC(C)C(=O)Nc2ccc3c(c2)OCCO3)nc2ccccc2c1=O (configuration not stated) |  | inconclusive: 1.58 µM [inhibitor, partial curve, poor fit]
34 | O=C(NC(=S)Nc1ccc(F)c(Cl)c1)C1CC1 |  | inconclusive: 11.2 µM [inhibitor, partial curve, poor fit]
35 | NCC(=O)Nc1ccc(Br)cc1 | inactive: -8.92% | 
36 | O=C(NC(=S)Nc1ccccc1N1CCCC1)c1ccc([N+](=O)[O-])cc1 |  | inconclusive: 31.6 µM [inhibitor, single point]
37 | Cc1ccc(NC2=NCC(Cc3ccc(Br)cc3)S2)cc1 (configuration not stated) |  | inconclusive: 11.2 µM [inhibitor, single point]
38 | O=C(N/N=C\c1ccncc1)c1ccccc1O | inactive: 17.6% | 
39 | Cc1cc2n(n1)SC(Nc1cccc3ccccc13)N2 (configuration not stated) |  | inconclusive: 3.98 µM [inhibitor, partial curve, poor fit]
40 | COc1ccc(C(c2c(C)n(C)n(-c3ccccc3)c2=O)c2c(C)n(C)n(-c3ccccc3)c2=O)cc1O |  | inconclusive: 14.1 µM [inhibitor, single point]
41 | COc1ccccc1NC(=O)c1nc(S(=O)(=O)Cc2ccccc2)ncc1Cl | inactive: 4.47% | 
42 | COc1ccc(-c2cc(-c3nc4ccccn4c3NCc3ccccc3)ccc2OC)cc1 |  | inconclusive: 12.6 µM [inhibitor, single point]
43 | N=c1n(CCN2CCCCC2)c2ccccc2n1CC(O)c1ccc(Cl)c(Cl)c1 (configuration not stated) |  | inconclusive: 28.2 µM [inhibitor, single point]
44 | CCN(CC)CC(O)COc1ccccc1C(=O)CCc1ccccc1 (configuration not stated) | inactive: -1.79% | 
45 | O=C(Nc1ccc(-n2cccn2)cc1)C1CCCCN1Cc1cccc2c1OCO2 (configuration not stated) |  | inconclusive: 10 µM [inhibitor, partial curve, poor fit]
46 | O=C(NC(=S)Nc1ccccc1O)c1ccc(Cl)cc1Cl |  | inconclusive: 8.91 µM [inhibitor, partial curve, poor fit]
47 | COc1cc2nc(N(CCCN(C)C)C(=O)c3ccc(C(=O)c4ccccc4)cc3)sc2cc1OC |  | inconclusive: 12.6 µM [inhibitor, single point]
